109 molecules from PubChem BioAssay AID1240 (Sanford-Burnham Center for Chemical Genomics, 2008) can be followed below.

Among all 50,000 compounds or so, about 800 (1.6%) showed an effect of 50% or more. The list shows a part of the results.

In the test the target is Bcl-2-like protein 10 (Homo sapiens) (UniProt Q9HD36). The test is described as follows: TR3 peptide-Bcl-B binding displacers, biochemical primary FP assay, phenotype converters (AID 1240).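 Also: 0% = Bcl-B with tracer peptide and DMSO and 100% = tracer peptide lacking Bcl-B.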 Particulars: GST-Bcl-B / FITC-TR3 peptide fluorescence polarization; stronger effect = higher value; compound at 3.75 mg/L.
Sequence of UniProt Q9HD36 (Q9HD36 whole entry, looked up): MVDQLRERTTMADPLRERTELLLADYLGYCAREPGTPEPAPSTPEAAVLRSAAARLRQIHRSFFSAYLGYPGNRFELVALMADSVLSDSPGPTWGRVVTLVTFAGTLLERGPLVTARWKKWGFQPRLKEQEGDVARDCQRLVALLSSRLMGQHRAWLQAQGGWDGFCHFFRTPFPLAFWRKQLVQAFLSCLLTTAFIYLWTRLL
As to `CCOc1ccc(NC(=O)c2cc3cc(OC)ccc3oc2=O)cc1`, the displacement is 13.8%.

In the case of `CCCCOC(=O)Nc1ccc(S(=O)(=O)Nc2cccc([N+](=O)[O-])c2)cc1`, the displacement was -1%.

In the case of `COc1cc(/C=N\Nc2nc3ccccc3o2)cc(OC)c1OC`, the displacement was -6.9%.

As to `CC(NS(=O)(=O)c1ccc([N+](=O)[O-])cc1)C(=O)O` (centres undefined), the displacement was 11.4%.

As for `COc1cccc(N(CC(=O)O)S(=O)(=O)c2ccccc2)c1`, the displacement amounted to 5.3%.

As for `O=C(CN1C(=O)/C(=C/c2ccccc2Cl)SC1=S)Nc1ccc(C(=O)O)cc1`, the displacement turned out to be 3.9%.

As for `COc1ccc(-c2ccc(/C=C/C(=O)c3ccc(Cl)cc3)o2)cc1`, the displacement is -16.7%.

Consider `O=C(Nc1c(C(=O)Nc2ccc(Br)cc2)cnn1-c1ccccc1)c1cccc(F)c1`, for which the displacement was 1.4%.

With `COC(=O)c1ccc(/C=C(/C#N)C(=O)Nc2ccc(O)cc2)cc1`, the displacement amounted to 1.4%.

Regarding `CC(C)c1cc(CN(C)C)cc(C(C)C)c1O`, the displacement is -4.1%.

As to `COC(=O)c1c(NC(=O)c2cc(OC)c(OC)c(OC)c2)sc2c1C(C(=O)OC)CC2` (centres undefined), the displacement is -1%.

With `O=C(Nc1ccc(S(=O)(=O)Nc2nccs2)cc1)C1CCCCC1`, the displacement turned out to be 14.5%.

In the case of `Nc1ccc(C(c2ccccc2)c2ccc(N)c(Cl)c2)cc1Cl`, the displacement is -1.2%.

As for `COC(=O)c1cccc(NC(=O)c2cc[n+](C)cc2)c1`, the displacement turned out to be 2.5%.

`COC(=O)c1ccccc1NC(=O)C(c1ccccc1)c1ccccc1`: the displacement is -5.3%.

Turning to `Cc1ccc(Br)cc1S(=O)(=O)n1nnc2ccccc21`, the displacement was -11.4%.

In the case of `COc1ccccc1C(=O)O/N=C(/c1ccncc1)c1ccc([N+](=O)[O-])cc1`, the displacement was 0.6%.

For `CCc1ccc(/C=C2\C(=O)NN(c3ccccc3)C2=O)cc1`, the displacement came out at 11.4%.

With `Cc1nnc(SCC(=O)c2ccc(Cl)cc2Cl)s1`, the displacement was -1.6%.

Consider `COc1cccc(NC(=O)c2cc(Br)ccc2I)c1`, for which the displacement is 3%.

As for `CCOC(=O)C(=O)CSc1ncnc2nc[nH]c12`, the displacement turned out to be 3.9%.

As for `NC(=O)NC(c1ccccc1)c1ccccc1`, the displacement came to 6.6%.

On to `O=C(Nc1ccc(I)cc1)C1CCCN1C(=O)Oc1ccccc1` (centres undefined), for which the displacement was 2.5%.

Turning to `O=C(c1ccccc1)c1ccc(N2CCCC2)c(F)c1`, the displacement is -18.9%.

For the molecule `COC(=O)COc1ccc(/C=C2\C(=O)NC(=S)N(c3ccc(Br)cc3)C2=O)cc1OC`, the displacement was -0.2%.

As to `CCCS(=O)(=O)c1c(S(=O)(=O)CCC)c2ccc(C(C)=O)cn2c1C(=O)c1ccc(Br)cc1`, the displacement was -6.6%.

Turning to `O=[N+]([O-])c1ccc2c(c1)C1C=CCC1C(c1ccc(F)cc1)N2` (centres undefined), the displacement came to 6.7%.

Consider `COc1cccc(NC(=O)C(C)Oc2ccc(Cl)cc2Cl)c1` (centres undefined), for which the displacement was -6.5%.

Consider `O=C(N/N=C/c1ccccc1[N+](=O)[O-])/C(=C\c1ccc2c(c1)OCO2)NC(=O)c1ccccc1`, for which the displacement was -11.2%.

`CC(C)(C)C1CCc2c(sc3ncn(N)c(=N)c23)C1` (centres undefined): the displacement was -3.2%.

For the molecule `O=C(CC(=O)c1ccccc1)CC(=O)c1ccccc1`, the displacement was -4.2%.

`c1ccc(CC2=NNC(c3ccccc3)S2)cc1` (centres undefined): the displacement was -1.4%.

In the case of `CCN(CC)c1ccc(C(=O)NCc2ccccn2)cc1`, the displacement stood at 0.8%.

On to `COc1ccc(C/C(N)=N/OC(=O)c2ccco2)cc1OC`, for which the displacement amounted to 2%.

Consider `CCCCCC(=O)N/N=C/c1ccccc1`, for which the displacement was -13.5%.

For `Cc1ccc(/C(N)=N/OC(=O)c2ccc([N+](=O)[O-])cc2)cc1`, the displacement worked out at 8.5%.

On to `O=S(=O)(Nc1ccc(N2CCOCC2)cc1)c1ccc(Cl)cc1`, for which the displacement was found to be 12.2%.

Consider `O=S(=O)(c1ccc(NC(=S)Nc2ccccc2)cc1)N1CCCCCC1`, for which the displacement is -5.7%.

As to `CCc1nnc(NC(=O)c2ccccc2F)s1`, the displacement was -3.5%.

Take `Cc1c(NC(=O)CCCN2C(=O)/C(=C/c3ccccc3)SC2=S)c(=O)n(-c2ccccc2)n1C`: the displacement amounted to 1.5%.

Regarding `CC(C)(C)N1C(=O)c2ccc(C(=O)Nc3c[nH]c(=O)[nH]c3=O)cc2C1=O`, the displacement was -1.6%.

Take `CCC(=O)Nc1ccc(NC(=O)COc2cc(C)ccc2C(C)C)cc1`: the displacement was determined as 12.9%.

For the molecule `Cc1nnc(NC(=O)CSCCSCC(=O)Nc2nnc(C)s2)s1`, the displacement was -27.1%.

Take `O=C(Nc1ccc(Cl)cn1)c1ccc(I)cc1`: the displacement came to 11.8%.

For `CCOc1ccc(Nc2cc(=O)n(C)c(=O)n2C)cc1`, the displacement was -4.6%.

Turning to `Cc1ccc(OCC(=O)Nc2cccc(C)n2)cc1`, the displacement is -6.4%.

As for `Cn1c(CNc2ccccc2O)nc2ccccc21`, the displacement worked out at 0.7%.

Take `COc1nc(-c2ccccc2)c2cc(Cl)ccc2n1`: the displacement was -0.4%.

As to `COc1ccc(NS(=O)(=O)c2ccc(Cl)c(C(=O)Nc3cccc(C(=O)O)c3)c2)cc1`, the displacement was -17.3%.

`COc1ccc(CN2CCN(C3CCCCC3)CC2)cc1OCc1ccccc1`: the displacement is -12.7%.

In the case of `Cc1ccccc1OCc1nnc(Sc2nc3ccc([N+](=O)[O-])cc3s2)n1-c1ccccc1`, the displacement was found to be 7.3%.

Consider `On1c(-c2ccccc2F)nc2c1CCc1nonc1-2`, for which the displacement is -6.7%.

For `COc1ccc(-n2c(C)ccc2-c2ccccc2)cn1`, the displacement was 46.2%.

As for `COCCN1C(=O)C(=O)/C(=C(/O)c2ccccc2)C1c1cccc([N+](=O)[O-])c1` (centres undefined), the displacement was determined as 5.5%.

Regarding `C=CCN1C(=O)/C(=C/c2ccc(C)cc2)C(=O)NC1=S`, the displacement was -5.3%.

Take `COC(=O)c1cccc(N2C(=O)c3ccc(Oc4ccc([N+](=O)[O-])cc4)cc3C2=O)c1`: the displacement was 9.1%.

As for `CCOc1ccccc1NC(=O)c1c(N)sc2c1CCC2`, the displacement is -22.9%.

Consider `CCN(CC)C(=O)C(=O)N/N=C/c1cccc(OC)c1`, for which the displacement came to 13.3%.

`Cc1cc(C(=O)N/N=C/c2c(C)nn(-c3ccccc3)c2C)n[nH]1`: the displacement is -4%.

Turning to `Cc1cc(Br)cc2c1NC(=O)C21OCCO1`, the displacement was -4.3%.

Take `CCOC(=O)N1CCN(C2CC(=O)N(c3ccc(Cl)cc3)C2=O)CC1` (centres undefined): the displacement is 1.1%.

Turning to `COc1ccc(OC)c(N(CC(=O)N2CCOCC2)S(C)(=O)=O)c1`, the displacement is 2.8%.

For the molecule `CCc1ccc(NC(=O)c2cc3n(n2)C(C(F)(F)F)CC(c2ccc(Cl)cc2)N3)cc1` (centres undefined), the displacement amounted to 7.5%.

As for `COc1ccc(N2C(=O)NC(=O)/C(=C\c3cccc(OC)c3OC)C2=O)cc1`, the displacement stood at 14%.

In the case of `CCCC(C)NC(=O)c1ccc(F)cc1` (centres undefined), the displacement is 1.4%.

Turning to `Cc1cccc(C(=O)N2CCC(C)CC2)c1`, the displacement is -3.2%.

As to `Cc1cc(Nc2ccc(N)c(C)c2)ccc1N`, the displacement is -5.7%.

`CCOC(=O)/C(=C(/C)NCc1ccccc1)c1c(O)cc(Br)c(O)c1Br`: the displacement was found to be 12.1%.

Turning to `CCOC(=O)c1ccc(N2COc3ccc4ccccc4c3C2)cc1`, the displacement is 8.7%.

Regarding `Cc1ccc(S(=O)(=O)Nc2cc(C)c(O)c(C)c2)cc1`, the displacement came out at 2.2%.

`O=C(Nc1cccc(Cl)c1)Nc1nc2ccc(Br)cc2s1`: the displacement is -4.4%.

Regarding `CCn1c2ccccc2c2cc(CN3CCN(C(=O)c4ccc([N+](=O)[O-])cc4)CC3)ccc21`, the displacement is -3%.

In the case of `O=C(N/N=C/c1ccco1)C(=O)N1CCCC1`, the displacement was -15.2%.

Take `COc1ccc(CCN=CC2=C(O)c3ccccc3C2=O)cc1`: the displacement stood at 1.9%.

Consider `CC1=C(C(=O)OC(C)C)C(c2ccccn2)C2=C(CC(C)(C)CC2=O)N1` (centres undefined), for which the displacement came to 4.4%.

Take `O=C(CSc1nc2sc3c(c2c(=O)n1-c1ccccc1)CCCC3)NCCc1ccccc1`: the displacement was found to be 1.7%.

On to `CC(=O)Oc1ccc(C(=O)O)c(OC(C)=O)c1`, for which the displacement worked out at 11.7%.

`Nc1ccc2nc(SCC(=O)NCCOc3ccc(Cl)cc3)sc2c1`: the displacement was -5.6%.

With `CN1CCN(Cc2cc(CSc3ccccc3)c3cccnc3c2O)CC1`, the displacement was 49%.

For the molecule `COc1ccc(OC)c(C2NC(c3cc(OC)ccc3OC)C(C)C(O)(c3ccc(F)cc3)C2C)c1` (centres undefined), the displacement was found to be 15.5%.

Take `CSc1nnc2c(n1)OC(C(=O)c1ccccc1)Nc1ccccc1-2` (centres undefined): the displacement came out at 13.5%.

For `Cc1cccc(CN2CCN(C(=O)c3ccc([N+](=O)[O-])cc3)CC2)c1`, the displacement was -6.5%.

For `O=C(NCCO)C(=O)NCc1ccco1`, the displacement worked out at 2.7%.

For `O=C1CC(Nc2ccc(F)cc2)C(=O)N1c1ccc(Br)cc1` (centres undefined), the displacement stood at 3.6%.

As for `COc1ccc(C(NC(=O)c2cccc(C)c2)NC(=O)c2cccc(C)c2)cc1OC`, the displacement was -5.8%.

For `COc1ccc(/C(C)=N\N2CCN(Cc3ccccc3Cl)CC2)cc1OC`, the displacement was -8.1%.

Regarding `CCOc1ccccc1C(=O)Nc1ccc(C(=O)OCC(C)C)cc1`, the displacement amounted to 11.1%.

As to `O=C1C(Cl)=C(Nc2ccccc2F)C(=O)N1c1ccc(Cl)cc1`, the displacement turned out to be 4.3%.

Take `O=C(CCCN1C(=O)c2cccc3cccc(c23)C1=O)Nc1cccc2ccccc12`: the displacement was determined as 5%.

Regarding `O=C(Nc1ccc2c(c1)C(=O)N(c1ccccc1)C2=O)c1ccc2c(c1)C(=O)N(c1ccccc1)C2=O`, the displacement stood at 6.7%.

Regarding `O=C(NC1CCCC1)c1cc2ccccc2oc1=O`, the displacement was -12.3%.

Regarding `O=C1/C(=C/c2c[nH]c3ccccc23)CC/C1=C\c1c[nH]c2ccccc12`, the displacement is -74.6%.

Turning to `O=C(Nc1cccc([N+](=O)[O-])c1)C1CC1(c1ccccc1)c1ccccc1` (centres undefined), the displacement was 2.9%.

As to `Cc1ccccc1C1C2=C(CC(C)(C)CC2=O)NC2=C1C(=O)CC(C)(C)C2`, the displacement is 12.1%.

Take `COC(=O)C1=C(C(=O)OC)SC(=C2C(=S)C(C)(C)N(C(=O)C(C)C)c3cc(C)ccc32)S1`: the displacement came out at 8.5%.

On to `CC(C)(C)c1ccc(CC2CC2(Cl)Cl)c([N+](=O)[O-])c1` (centres undefined), for which the displacement was determined as 0.3%.

With `COc1ccc2oc(-c3ccccc3)c(C(=O)N3CCOCC3)c2c1`, the displacement worked out at 8.6%.

Consider `COc1ccc(OC)c(-n2c(O)c(C=NCc3ccc(F)cc3)c(=O)[nH]c2=O)c1`, for which the displacement was determined as 7.9%.

For `COc1ccc(C(=O)/C=C/c2cc3c(cc2Br)OCO3)cc1OC`, the displacement came out at 9.1%.

`CC1C2C=CC(C1C(=O)N(C=O)c1cccc([N+](=O)[O-])c1)C2C1=CCCC1` (centres undefined): the displacement amounted to 2.1%.

For the molecule `O=C(c1ccc(Cl)cc1[N+](=O)[O-])N1CCN(C/C=C/c2ccccc2)CC1`, the displacement was -5.5%.

`CC(Nc1cc(N2CCN(C)CC2)ccc1[N+](=O)[O-])c1ccc(Br)cc1` (centres undefined): the displacement was 9.3%.

On to `Cc1nn(C(=O)C23CC4CC(CC(C4)C2)C3)c(C)c1Sc1ccc([N+](=O)[O-])cc1`, for which the displacement was found to be 7.2%.

`Cc1ccc(-c2nc(N/N=C/c3cccc([N+](=O)[O-])c3)c3ccccc3n2)cc1`: the displacement amounted to 2.6%.

For the molecule `COc1cc(NC(=O)c2ccc([N+](=O)[O-])cc2)ccc1NC(=O)c1cc2ccccc2o1`, the displacement came to 2%.

Regarding `O=C(CCC1CCCCC1)Nc1ccncc1`, the displacement came to 7.8%.

Turning to `NC1=NC(=O)/C(=C/c2ccc(OS(=O)(=O)c3ccc([N+](=O)[O-])cc3)c(Br)c2)S1`, the displacement is -5.9%.

With `COc1ccc(-c2csc(/C(C#N)=C/c3sccc3C)n2)cc1OC`, the displacement was 181%.

In the case of `CC(C)OC(=O)CC(O)(c1ccccc1)C(F)(F)C(F)F` (centres undefined), the displacement is -12.3%.
